For this assay, the system named is NCI-H322M lung. Description: DTP human tumour cell line panel, 48 h.

Structures are written as SMILES. Several values for one entry are separate records, joined by “and”; a condition that tells them apart may be missing. Equal entries are not always repeated.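 Dose response: 5 concentrations. Exposure: 48 h. Format: 96-well plates. Endpoint: linear interpolation; highest concentration if not reached. Abbreviation: GI50, concentration required for 50% inhibition of growth. TGI marks complete inhibition of growth.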 Some results are limits rather than exact numbers.

A word on the GI50: it is the concentration at which growth is held to half of that of the control. A word on the TGI: it is the concentration at which net growth stops. A lower TGI goes with greater sensitivity of the cells.

On to `N#Cc1cnc2cc(OC[C@H](O)CO)c(NC(=O)CC3CSSC3)cc2c1Nc1ccc(OCc2cccc(F)c2)c(Cl)c1`, for which the GI50 is 0.517 µM and the TGI is 1.3 µM.

`COC(=O)/C=C/C=C(c1ccccc1)c1ccccc1`: the GI50 was 5.85 µM and the total growth inhibition concentration (TGI) is over 100 µM.

Take `CC(=O)OC[C@]1(C(=O)C(O)c2ccoc2)[C@H](C)CC[C@@]23COC(=O)C2=CCC[C@@H]31` (some centres undefined): the concentration for total growth inhibition (TGI) was over 10 µM.

The molecule `COc1cccc(-c2cc(=O)c3c(C)cc(C)nc3[nH]2)c1` registered a total growth inhibition concentration (TGI) of over 100 µM.

`COc1ccc2c(c1)O/C(=C\c1cccc(OCC(=O)Nc3nc4c(s3)CCCC4)c1)C2=O`: the GI50 was over 100 µM and the TGI was over 100 µM.

Regarding `CC1SC(c2c(Cl)cccc2Cl)N(NC(=O)c2[nH]c3ccc(F)cc3c2-c2ccccc2)C1=O` (centres undefined), the GI50 was 2.18 µM and the total growth inhibition concentration (TGI) was determined as 6.48 µM.

Turning to `C=C(Cl)/C(=C\Cl)CCC(Br)C(C)C` (centres undefined), the TGI is over 100 µM.

The molecule `CN(C)C(CN)CC1=C(CC(CN)N(C)C)CCC1` (centres undefined) returned a TGI of over 100 µM.

In turn, `CCC(C(=O)O)c1ccc(OCc2ccccc2)cc1` (centres undefined) had a TGI of over 100 µM.

The molecule `Cc1cc(N(CCC#N)S(=O)(=O)c2ccccc2)ccc1/C=C1N=C(/C=C/c2ccccc2)OC\1=O` gave a TGI of over 100 µM.

As for `CCCN=Cc1cc(Cc2ccc(O)c(C=NCCC)c2)ccc1O`, the TGI was determined as 28.2 µM.

As to `CCN(CC)S(=O)(=O)c1ccc(OC)c(Nc2ncc(-c3ccccc3)o2)c1`, the GI50 is over 25 µM and the TGI was over 25 µM.

On to `CC/C=C\C=C/C(=O)N/C=C/CC1Cc2cccc(O)c2C(=O)O1` (centres undefined), for which the GI50 was over 100 µM and the TGI was over 100 µM.

As for `CC(C)(C)C#CC1=C(Br)C(=O)OC1`, the GI50 is 1.65 µM and the TGI was found to be 4.37 µM.

On to `Cc1[c-]onc1C.Cc1[c-]onc1C.[Ag].[Ag].[NH-]S(=O)(=O)c1ccc(N=Nc2cc(N=Nc3ccc(S([NH-])(=O)=O)cc3)c3c(NC(=O)C(Cl)Cl)cccc3c2OC(=O)C(Cl)Cl)cc1`, for which the GI50 was 11 µM and the TGI stood at 32.7 µM.

In turn, `Cc1cc(C)c2c(=O)n(CN3CC4Nc5ccccc5C4C3)sc2n1` (centres undefined) yielded a TGI of over 100 µM.

`O=C1CCSSCCC(=O)NCCN1` yielded a TGI of over 100 µM.

With `ClCCn1c(CCl)nc2ccc(Cl)cc21`, the GI50 was 4.39 µM and the concentration for total growth inhibition (TGI) is 14.5 µM.

Molecule `O=C(O)c1ccc([Se][Se]c2ccc(C(=O)O)cc2)cc1` returned a concentration for total growth inhibition (TGI) of 21.4 µM.

Regarding `CC(C)(C)OC(=O)C#CC[C@H]1CCCC1/C=C/C(O)=C1/C(=O)NC(CCCNC(=O)OC(C)(C)C)C1=O` (some centres undefined), the TGI is over 100 µM.

In the case of `Nc1c(C(=O)Nc2cccc([N+](=O)[O-])c2)sc2nc3c(cc12)C(O)CCC3` (centres undefined), the GI50 is over 100 µM and the TGI is over 100 µM.

Molecule `O=C(Cn1ccc(=O)[nH]c1=O)Nc1ccc(C(=O)O)c(O)c1` gave a TGI of over 100 µM.

As to `C/C(N=Nc1nc2ccccc2s1)=C1/C=CC=CN1O`, the total growth inhibition concentration (TGI) is 70.5 µM.

`CSCCC(NCc1c(O)ccc2c(-c3ccccc3)cc(=O)oc12)C(=O)O` (centres undefined) gave a TGI of over 100 µM.

Consider `C[N+](C)(C)CC(=O)N/N=C(/Cc1nc2c3c(ccc2[nH]c1=O)C(=O)c1ccccc1C3=O)C(=O)Nc1ccc(Cl)c(Cl)c1`, for which the TGI was over 100 µM.

Take `COc1cc(OCc2ccc3oc(=O)c(-c4ccccc4)nc3c2)cc(OC)c1OC`: the TGI was over 100 µM.

On to `COc1cc(Cl)cc(-c2nn(C(=O)NCCN3CCOCC3)cc2-c2ccncc2)c1`, for which the GI50 is 37.8 µM and the total growth inhibition concentration (TGI) was over 100 µM.

The molecule `COc1cc2c(cc1OC)C(N(C)C)C(c1ccccc1)=C2Cl` (centres undefined) gave a TGI of 71.4 µM.

On to `COc1cc(C2c3cc4c(cc3[C@@H](Nc3ccc(C#N)cc3)C3COC(=O)[C@H]23)OCO4)cc(OC)c1O` (some centres undefined), for which the GI50 is 2.56 µM and 3.22 µM; the total growth inhibition concentration (TGI) was 24.7 µM and 46.1 µM and 33.3 µM.

For the molecule `CC(C)C(=O)Nc1nc2nc[nH]c2c(=O)[nH]1`, the TGI was over 100 µM.

The molecule `CC(=O)NS(=O)(=O)c1ccc(NC(=O)c2c3ccccc3nc3ccccc23)cc1` displayed a TGI of over 100 µM.

The molecule `COc1ccc(/C(=N/O)c2ccccc2-c2nc3ccccc3c(=O)n2-c2ccc(S(=O)(=O)Nc3ncccn3)cc2)cc1C` registered a TGI of over 31.6 µM.

These data come from PubChem BioAssay (NCI).
